Reference: patent US11178870B2 (priority 2017, dated 2021)

Assays:
Format in all cases: in vivo
Botrytis cinerea = assay: Test Example B: Gray mold on tomato; conditions: for Test B control value: Gray mold on tomato; for control value, Test B (gray mold on tomato): Table 7, Test B; for Test B control value (gray mold on tomato): class of control value, Table 7
Alternaia brassicicola = assay: Test Example C: Alternaria sooty spot on cabbage; conditions: for Test C control value: Alternaria sooty spot on cabbage; for control value, Test C (Alternaria sooty spot on cabbage): Table 7, Test C; for Test C control value (Alternaria sooty spot on cabbage): class of control value, Table 7
Puccinia recondita = assay: Test Example E: Brown rust on wheat; conditions: for Test E control value: Brown rust on wheat; for control value, Test E (brown rust on wheat): Table 7, Test E; for Test E control value (brown rust on wheat): class of control value, Table 7
[1] = test system: Blumeria graminis f. sp. hordei; assay: Test Example D: Powdery mildew on barley; conditions: for Test D control value: Powdery mildew on barley; for control value, Test D (powdery mildew on barley): Table 7, Test D; for Test D control value (powdery mildew on barley): class of control value, Table 7
Plasmopara viticola = assay: Test Example G: Downy mildew on vine; conditions: for Test G control value: Downy mildew on vine, 250 ppm sprayed, 7 to 10 days after inoculation; for Test G control value / Test G control value (downy mildew on vine): 2.5 ml/pot; for control value, Test G (downy mildew on vine): 250 ppm sprayed (2.5 ml/pot) before inoculation, assessed 7 to 10 days after inoculation; for Test G control value (downy mildew on vine): 250 ppm spray, investigated 7 to 10 days after inoculation

| Compound | control value, Test B (gray mold on tomato) (Botrytis cinerea) | control value, Test C (Alternaria sooty spot on cabbage) (Alternaia brassicicola) | control value, Test E (brown rust on wheat) (Puccinia recondita) | control value, Test D (powdery mildew on barley) [1] | control value, Test G (downy mildew on vine) (Plasmopara viticola) | further results |
| --- | --- | --- | --- | --- | --- | --- |
| CCn1c(-c2c(F)cc(OC)cc2F)c(-c2ocnc2Br)cc(Cl)c1=O [Compound 118] |  |  |  |  |  | Test B control value (Botrytis cinerea): H (H shows the control value more than 50%); Test C control value (Alternaia brassicicola): H (H shows the control value more than 50%); Test E control value (Puccinia recondita): H (H shows the control value more than 50%); Test D control value [1]: H (H shows the control value more than 50%); Test G control value (Plasmopara viticola): H (H shows the control value more than 50%) |
| Cc1cnn(-c2cc(Cl)c(=O)n(CC(F)F)c2-c2ccccc2F)c1Cl [Compound 310] | H (H shows the control value more than 50%) | H (H shows the control value more than 50%) | H (H shows the control value more than 50%) | H (H shows the control value more than 50%) | L (L shows the control value of 50% or less) |  |
| O=c1c(Br)cc(-c2sc(Br)cc2Cl)c(-c2c(F)cccc2F)n1CC(F)F [Compound 432] |  |  |  |  |  | Test B control value (gray mold on tomato) (Botrytis cinerea): H (H shows the control value more than 50%); Test C control value (Alternaria sooty spot on cabbage) (Alternaia brassicicola): H (H shows the control value more than 50%); Test E control value (brown rust on wheat) (Puccinia recondita): L (L shows the control value of 50% or less); Test D control value (powdery mildew on barley) [1]: H (H shows the control value more than 50%); Test G control value (downy mildew on vine) (Plasmopara viticola): L (L shows the control value of 50% or less) |
| CCn1c(-c2c(F)cccc2F)c(-n2cc(Cl)cn2)ccc1=O [Compound 52] |  |  |  |  |  | Test B control value (Botrytis cinerea): H (H shows the control value more than 50%); Test C control value (Alternaia brassicicola): H (H shows the control value more than 50%); Test E control value (Puccinia recondita): H (H shows the control value more than 50%); Test D control value [1]: H (H shows the control value more than 50%); Test G control value (Plasmopara viticola): L (L shows the control value of 50% or less) |
| CCn1c(-c2ccccc2Cl)c(-n2cnc(Cl)c2Cl)cc(Br)c1=O [Compound 210] | H (H shows the control value more than 50%) | L (L shows the control value of 50% or less) | H (H shows the control value more than 50%) | L (L shows the control value of 50% or less) | L (L shows the control value of 50% or less) |  |
| O=c1c(Br)cc(-n2cc(Cl)cn2)c(-c2ccccc2Br)n1CC(F)F [Compound 291] | L (L shows the control value of 50% or less) | H (H shows the control value more than 50%) | L (L shows the control value of 50% or less) | L (L shows the control value of 50% or less) | L (L shows the control value of 50% or less) |  |
| Cc1cnn(-c2cc(Br)c(=O)n(C)c2-c2ccccc2F)c1 [Compound 489] |  |  |  |  |  | Test B control value (gray mold on tomato) (Botrytis cinerea): L (L shows the control value of 50% or less); Test C control value (Alternaria sooty spot on cabbage) (Alternaia brassicicola): H (H shows the control value more than 50%); Test E control value (brown rust on wheat) (Puccinia recondita): H (H shows the control value more than 50%); Test D control value (powdery mildew on barley) [1]: L (L shows the control value of 50% or less); Test G control value (downy mildew on vine) (Plasmopara viticola): L (L shows the control value of 50% or less) |
| O=c1ccc(-c2ccsc2Cl)c(-c2c(F)cccc2F)n1CC(F)F [Compound 366] | H (H shows the control value more than 50%) | H (H shows the control value more than 50%) | H (H shows the control value more than 50%) | H (H shows the control value more than 50%) | H (H shows the control value more than 50%) |  |
